Some of the results follow. At the low end of the ranking the order means little. Measured with an extract: partners may take part in the binding.
Biological target: T1, HNF4alpha2 (COS-7 nuclear extract) (UniProt P41235)
T1 sequence: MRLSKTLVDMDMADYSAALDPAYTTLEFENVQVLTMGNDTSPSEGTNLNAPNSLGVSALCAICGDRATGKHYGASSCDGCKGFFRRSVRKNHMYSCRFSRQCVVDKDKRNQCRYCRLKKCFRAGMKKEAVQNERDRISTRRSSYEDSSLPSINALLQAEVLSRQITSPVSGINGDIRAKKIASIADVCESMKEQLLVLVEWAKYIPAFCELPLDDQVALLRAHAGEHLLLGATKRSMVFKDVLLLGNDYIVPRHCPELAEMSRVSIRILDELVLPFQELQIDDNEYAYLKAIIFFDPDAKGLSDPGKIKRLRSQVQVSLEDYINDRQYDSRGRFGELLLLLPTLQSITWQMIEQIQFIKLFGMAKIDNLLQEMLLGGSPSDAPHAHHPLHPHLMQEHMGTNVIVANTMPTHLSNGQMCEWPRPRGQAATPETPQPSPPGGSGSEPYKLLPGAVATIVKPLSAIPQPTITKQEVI
Assay: protein-binding microarray
Conditions: COS-7 nuclear extract on double-stranded Agilent 4x180k PBM; binding buffer, salt, pH and temperature not given; high values mean tight binding; double strand, one strand shown; sequences stand for … in …GCCTAGGGAGATTAGAGTATCGGTCGA

| Sequence | binding signal (log2 normalized intensity) |
| --- | --- |
| GTGGTCCTAAGACTGACCTTTGATCATTTG | 8.56 |
| TTTGGTGAGGCCCCAGTGTCAATTCTCATT | 1.82 |
| ATTGATTGGGACCTGAGAACAAACAATGGT | 0.892 |
| CCCATCTGGGACTTCAAAGCGCAGCGCGGG | -1.02 |
| CAATCAGAAACCGGGCCAATGGGTTCCCTG | -1.1 |
| CAGGTGCTGGGATGATTCCCTTATCTTCTC | 0.742 |
| GCCCCTGATGTGATGTAATCAAATGTACAC | 2.08 |
| AGTGTGACTCATCAATCTGGAATTACCTGT | 0.257 |
| CCGGAATTTCCTCCTGGCAGAGCATAGAAG | -1.07 |
| TAGTATTGAGTTTGCTCTGCTACTAACTGC | -0.991 |
| TAGGGCCACTTTGTCCTTCACTTGTAGGAG | 0.555 |
| ACACAGAGATCTGATCAAAGGTCATTGGTA | 5.88 |
| TTGTCAGTGAGGAATGTGCAAACGGCCCAG | -1.14 |
| GAGCTGCTGGAACAGGCTGGGACACGCCTG | -1.16 |
| CTGGCCCAGCCTGGCCTCTAGAGTGGTTGC | -1.14 |
| GCAGACCCTATTGGGCTAGCCGCTCCTCCC | -0.974 |
| AATGATGATGACTTTTGACCCCAGGGGAAA | 5.51 |
| GAATCCTCTCTTGCTCAGGTGAGGCCAGTC | -0.96 |
| AGAGCAGAATCTACAAGGACCAGATTCTTA | -1.18 |
| GGTCAAGGACTGTTCAGTCCCAGTATGTGC | 0.851 |
| GTTTTGAGATAGGGTCTTGCTTTGTCACCC | 1.81 |
| CCAGAGTTCAGGTAGAGGGATTCCCTGGGA | -1.07 |
| GCTCCCTCCCCTCCTCCCTTGCTCACCCCA | 5.91 |
| TAAGTACCCACTATAGATTGTGAGATAAGT | 0.14 |
| CCCCAAAAACTTGGACTCTATAGCCTATGC | 1.62 |

| Sequence | binding signal (log2 normalized intensity) |
| --- | --- |
| AGGCCCATCTTCTTATCTGAGGTTTGACTT | 0.832 |
| AGGTCGCCGGGAAAACCCGGAGCGGAGCAT | -1.14 |
| CTGAAGACAGTCTCCAAGGTTATTATATTG | 1.46 |
| AACAGTCTGCACATTTATTGGACTAGGCAC | 1.23 |
| AGGAACTTACGAAGATAAATCAGAAGAAAA | -1.08 |
| CCATAAATACACAATCTGAAGTCCCCTGTG | 2.11 |
| ATATAAGCTATTACTTGATTTAATACGATA | 0.407 |
| TTTACGAAGTGTTTGTCAAGCTCAATGCAA | -0.424 |
| ATAACCACCATTAGACTCTGCCCTCCTTAA | 2.32 |
| CTGCTTGATAGCCATCTGGTGGACTTTGCT | 5.26 |
| TCCCTTCCCCCCTCCTCATTGAGAGTTTTA | 4.2 |
| CAGTGACAAATGTCAGACAAACAGACTTCA | -1.11 |
| GAACGAATACTCAAGGGGAAGAAATCTAAG | -1.2 |
| GGCCAGGATTAACCACAGAAATGCCGCTAA | -1.12 |
| TGAGTGACCTTTCACCCGCGCCCAGCGGTT | 3.91 |
| CCGGGAGCGCCGAGCACGTCGAGCAGGCCC | -1.07 |
| TGAATCAATAAGCCAGTGAACCTTTGTCCC | 4.79 |
| AGGAATGCTGAGGAGGGCCTGGGGGACAGC | -1.09 |
| TTCATCAGATTAGAAGGCAGAGAAAGATAG | -1.11 |
| CCTCCCCTCCCCCCAGTTCCCTGGGTCGCC | 4.3 |
| GTTAGCATAGCCTATCTGGTGCAGTCCAAG | -0.518 |
| TGAAACTCCACTACATTAGCAGCGCCACCA | -1.08 |
| CTACATCAAGAGGATTACATAACCACCACT | -1.06 |
| ACTCTGAGGCTCCATCATGCCTGGCAGCCT | -1.09 |
| CTTGACCTTTGATCCAGGCTCAGTGGGCGT | 4.91 |

| Sequence | binding signal (log2 normalized intensity) |
| --- | --- |
| CCTGATGACAACTGAATGTGACCTTTTGGA | 5.25 |
| TTCTTCTGGTTCTGCAAGGCAACTGACCTT | 3.64 |
| ATGTGACCTTTTGGACCACAGAGTGACCTG | 5.16 |
| CTGATAAATCCCGAGCCAGAGCCAAAGGGC | -1.06 |
| TCTGAGTAGGAAAGACTTGCTCATTGATGA | -0.647 |
| AGTTTGACTCCAAAGGGCTGGAGACTGAGT | -0.509 |
| ATAAAGGAAGCTGGGCACAAATTGGAGAGC | -1.19 |
| TGATCCAGGGCAAAGGTCATAATTTGATCC | 6.34 |
| GGAAATGCCTAGGATACCTAGTAGGCACAA | -1.24 |
| TTGACCTTTGGCCAAGGGCAGTGTTTGCCC | 5.35 |
| GATGCAGGTCGCCGGGAAAACCCGGAGCGG | -1.03 |
| TGACCCTATCCACATTCAGCCCACTTCCTA | 1.16 |
| GTTCCCTGGGTCGCCAAGCCGGAGGCTTTG | -0.863 |
| CTGACTGGCCTGGGAACCCCAAGTTATCTT | -1.13 |
| TCACCTGTAGGGATGTGGGACTTAATCCTT | 0.695 |
| CCAAATTCCTCCCACTCTGACATCCCCCTT | 4.52 |
| GGGAAACAGCGAGAGTCCTCTTGGTTTATG | 0.679 |
| ATGAATGTCACACACAGACTTGGGTTCAAA | 1.21 |
| AATTCTATGAGTAGGTACAAATTCCAAGGA | 1.93 |
| ATGCGATACTTGACCTGCAATGAAAGTCCA | 2.44 |
| ACTGCAGGGGGGTGGGCACCCCTGCCCCCA | 2.82 |
| GTTAGCAACCGGAAGTGGCTAGAGGTCGCG | -0.0731 |
| ACTCCTTTGCTTATCTGATAAGTCCATACC | 1.53 |

Reference: paper PMC10726135
